# Laboratory results taken from the supplement of paper PMC8728848.
# The list shows a part of the results.
# B1: Siglec-E (Mus musculus), Q91Y57 (protein)
# chain: MLLLLLLLLLWGIKGVEGQNPQEVFTLNVERKVVVQEGLCVLVPCNFSYLKKRLTDWTDSDPVHGFWYREGTDRRKDSIVATNNPIRKAVKETRNRFFLLGDPWRNDCSLNIREIRKKDAGLYFFRLERGKTKYNYMWDKMTLVVTALTNTPQILLPETLEAGHPSNLTCSVPWDCGWTAPPIFSWTGTSVSFLSTNTTGSSVLTITPQPQDHGTNLTCQVTLPGTNVSTRMTTRLNVSYAPKNLTVTIYQGADSVSTILKNGSSLPISEGQSLRLICSTDSYPPANLSWSWDNLTLCPSKLSKPGLLELFPVHLKHGGVYTCQAQHALGSQHISLSLSPQSSATLSEMMMGTFVGSGVTALLFLSVCILLLAVRSYRRKPARPAVVAPHPDALKVSVSQNPLVESQADDSSEPLPSILEAAPSSTEEEIHYATLSFHEMKPMNLWGQQDTTTEYSEIKFPQRTAWP
# Tests used:
# Assay in all cases: glycan array binding signal (z-score within array); higher = stronger binding
# Settings in all cases: glycan notation: IUPAC condensed, linker removed
# Gal(a1-6)Glc = biological target: Gal(a1-6)Glc
# In short: (§1)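 Glycan array data were curated from 3228 arrays in the Consortium for Functional Glycomics database and kept only where the protein sequence was available. Glycan names were converted to IUPAC-condensed notation, and columns mapping to the same glycan were averaged. The binding signal is a within-array Z-score, averaged across arrays of the same protein sequence at different concentrations or buffers and across linkers. Negative Z-scores can be read as non-binding.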
# Gal(b1-2)Gal = biological target: Gal(b1-2)Gal
# In short: as §1
# Gal(b1-3)Gal = biological target: Gal(b1-3)Gal
# In short: as §1
# Gal(b1-3)Gal(b1-4)GlcNAc = biological target: Gal(b1-3)Gal(b1-4)GlcNAc
# In short: as §1
# Gal(b1-3)GalNAc = biological target: Gal(b1-3)GalNAc
# In short: as §1
# [1] = biological target: Gal(b1-3)GalNAc(a1-3)[Fuc(a1-2)]Gal(b1-4)Glc
# In short: as §1
# [2] = biological target: Gal(b1-3)GalNAc(a1-3)[Fuc(a1-2)]Gal(b1-4)GlcNAc
# In short: as §1
# Gal(b1-3)GalNAc(b1-3)Gal = biological target: Gal(b1-3)GalNAc(b1-3)Gal
# In short: as §1
# [3] = biological target: Gal(b1-3)GalNAc(b1-3)Gal(a1-4)Gal(b1-4)Glc
# In short: as §1
# [4] = biological target: Gal(b1-3)GalNAc(b1-4)Gal(b1-4)Glc
# In short: as §1
# [5] = biological target: Gal(b1-3)GalNAc(b1-4)[Neu5Ac(a2-3)]Gal(b1-4)Glc
# In short: as §1
# Gal(b1-3)GlcNAc = biological target: Gal(b1-3)GlcNAc
# In short: as §1
# [6] = biological target: Gal(b1-3)GlcNAc(a1-3)Gal(b1-4)GlcNAc
# In short: as §1
# [7] = biological target: Gal(b1-3)GlcNAc(a1-6)Gal(b1-4)GlcNAc
# In short: as §1
# Gal(b1-3)GlcNAc(b1-2)Man = biological target: Gal(b1-3)GlcNAc(b1-2)Man
# In short: as §1
# [8] = biological target: Gal(b1-3)GlcNAc(b1-2)Man(a1-3)[Gal(b1-3)GlcNAc(b1-2)Man(a1-6)]Man(b1-4)GlcNAc(b1-4)GlcNAc
# In short: as §1
# [9] = biological target: Gal(b1-3)GlcNAc(b1-2)Man(a1-3)[Gal(b1-3)GlcNAc(b1-2)Man(a1-6)]Man(b1-4)GlcNAc(b1-4)[Fuc(a1-6)]GlcNAc
# In short: as §1
# [10] = biological target: Gal(b1-3)GlcNAc(b1-2)Man(a1-3)[GlcNAc(b1-4)][Gal(b1-3)GlcNAc(b1-2)Man(a1-6)]Man(b1-4)GlcNAc(b1-4)GlcNAc
# In short: as §1
# [11] = biological target: Gal(b1-3)GlcNAc(b1-2)[Gal(b1-3)GlcNAc(b1-6)]Man(a1-6)[Gal(b1-3)GlcNAc(b1-2)Man(a1-3)]Man(b1-4)GlcNAc(b1-4)GlcNAc
# In short: as §1
# [12] = biological target: Gal(b1-3)GlcNAc(b1-3)Gal(b1-3)GlcNAc
# In short: as §1
# [13] = biological target: Gal(b1-3)GlcNAc(b1-3)Gal(b1-4)Glc
# In short: as §1
# [14] = biological target: Gal(b1-3)GlcNAc(b1-3)Gal(b1-4)GlcNAc
# In short: as §1
# [15] = biological target: Gal(b1-3)GlcNAc(b1-3)Gal(b1-4)GlcNAc(b1-2)Man(a1-3)[Gal(b1-3)GlcNAc(b1-3)Gal(b1-4)GlcNAc(b1-2)Man(a1-6)]Man(b1-4)GlcNAc(b1-4)GlcNAc
# In short: as §1
# [16] = biological target: Gal(b1-3)GlcNAc(b1-3)Gal(b1-4)GlcNAc(b1-2)[Gal(b1-3)GlcNAc(b1-3)Gal(b1-4)GlcNAc(b1-6)]Man(a1-6)[Gal(b1-3)GlcNAc(b1-3)Gal(b1-4)GlcNAc(b1-2)Man(a1-3)]Man(b1-4)GlcNAc(b1-4)[Fuc(a1-6)]GlcNAc
# In short: as §1
# [17] = biological target: Gal(b1-3)GlcNAc(b1-3)Gal(b1-4)GlcNAc(b1-3)Gal(b1-4)GlcNAc(b1-2)[Gal(b1-3)GlcNAc(b1-3)Gal(b1-4)GlcNAc(b1-3)Gal(b1-4)GlcNAc(b1-6)]Man(a1-6)[Gal(b1-3)GlcNAc(b1-3)Gal(b1-4)GlcNAc(b1-3)Gal(b1-4)GlcNAc(b1-2)Man(a1-3)]Man(b1-4)GlcNAc(b1-4)[Fuc(a1-6)]GlcNAc
# In short: as §1
# [18] = biological target: Gal(b1-3)GlcNAc(b1-3)Gal(b1-4)GlcNAc(b1-6)[Gal(b1-3)GlcNAc(b1-3)]Gal(b1-4)Glc
# In short: as §1
# [19] = biological target: Gal(b1-3)GlcNAc(b1-3)Gal(b1-4)[Fuc(a1-3)]GlcNAc
# In short: as §1
# [20] = biological target: Gal(b1-3)GlcNAc(b1-3)Gal(b1-4)[Fuc(a1-3)]GlcNAc(b1-6)[Gal(b1-3)GlcNAc(b1-3)]Gal(b1-4)Glc
# In short: as §1
# [21] = biological target: Gal(b1-3)GlcNAc(b1-3)GalNAc
# In short: as §1
# [22] = biological target: Gal(b1-3)GlcNAc(b1-6)Gal(b1-4)GlcNAc
# In short: as §1
# [23] = biological target: Gal(b1-3)GlcNAc(b1-6)GalNAc
# In short: as §1
# [24] = biological target: Gal(b1-3)GlcNAc(b1-6)[Gal(b1-3)]GalNAc
# In short: as §1
# Gal(b1-3)GlcNAc6S = biological target: Gal(b1-3)GlcNAc6S
# In short: as §1
# [25] = biological target: Gal(b1-3)[Fuc(a1-4)]GlcNAc
# In short: as §1
# [26] = biological target: Gal(b1-3)[Fuc(a1-4)]GlcNAc(b1-2)Man
# In short: as §1
# [27] = biological target: Gal(b1-3)[Fuc(a1-4)]GlcNAc(b1-2)Man(a1-3)[Gal(b1-3)[Fuc(a1-4)]GlcNAc(b1-2)Man(a1-6)]Man(b1-4)GlcNAc(b1-4)[Fuc(a1-6)]GlcNAc
# In short: as §1
# [28] = biological target: Gal(b1-3)[Fuc(a1-4)]GlcNAc(b1-3)Gal(b1-3)[Fuc(a1-4)]GlcNAc
# In short: as §1
# [29] = biological target: Gal(b1-3)[Fuc(a1-4)]GlcNAc(b1-3)Gal(b1-4)[Fuc(a1-3)]GlcNAc
# In short: as §1
# [30] = biological target: Gal(b1-3)[Fuc(a1-4)]GlcNAc(b1-6)GalNAc
# In short: as §1
# [31] = biological target: Gal(b1-3)[GlcNAc(b1-6)]GalNAc
# In short: as §1
# [32] = biological target: Gal(b1-3)[Neu5Ac(a2-6)]GalNAc
# In short: as §1
# [33] = biological target: Gal(b1-3)[Neu5Ac(a2-6)]GlcNAc(b1-4)Gal(b1-4)Glc
# In short: as §1
# [34] = biological target: Gal(b1-3)[Neu5Ac(b2-6)]GalNAc
# In short: as §1
# Gal(b1-4)Gal = biological target: Gal(b1-4)Gal
# In short: as §1
# [35] = biological target: Gal(b1-4)GalNAc(a1-3)[Fuc(a1-2)]Gal(b1-4)GlcNAc
# In short: as §1
binder,measurement,setting,value
B1,glycan array binding signal (z-score),Gal(a1-6)Glc,0.863
same,glycan array binding signal (z-score),Gal(b1-2)Gal,0.795
same,glycan array binding signal (z-score),Gal(b1-3)Gal,-0.177
same,glycan array binding signal (z-score),Gal(b1-3)Gal(b1-4)GlcNAc,-0.169
same,glycan array binding signal (z-score),Gal(b1-3)GalNAc,-0.377
same,glycan array binding signal (z-score),[1],-0.496
same,glycan array binding signal (z-score),[2],-0.427
same,glycan array binding signal (z-score),Gal(b1-3)GalNAc(b1-3)Gal,-0.219
same,glycan array binding signal (z-score),[3],-0.338
same,glycan array binding signal (z-score),[4],0.629
same,glycan array binding signal (z-score),[5],-0.52
same,glycan array binding signal (z-score),Gal(b1-3)GlcNAc,-0.331
same,glycan array binding signal (z-score),[6],-0.363
same,glycan array binding signal (z-score),[7],0.026
same,glycan array binding signal (z-score),Gal(b1-3)GlcNAc(b1-2)Man,-0.592
same,glycan array binding signal (z-score),[8],0.733
same,glycan array binding signal (z-score),[9],0.041
same,glycan array binding signal (z-score),[10],1.56
same,glycan array binding signal (z-score),[11],1.66
same,glycan array binding signal (z-score),[12],-0.216
same,glycan array binding signal (z-score),[13],-0.441
same,glycan array binding signal (z-score),[14],-0.495
same,glycan array binding signal (z-score),[15],-0.459
same,glycan array binding signal (z-score),[16],-0.136
same,glycan array binding signal (z-score),[17],-0.043
same,glycan array binding signal (z-score),[18],-0.172
same,glycan array binding signal (z-score),[19],-0.397
same,glycan array binding signal (z-score),[20],-0.519
same,glycan array binding signal (z-score),[21],0.074
same,glycan array binding signal (z-score),[22],-0.431
same,glycan array binding signal (z-score),[23],-0.473
same,glycan array binding signal (z-score),[24],-0.267
same,glycan array binding signal (z-score),Gal(b1-3)GlcNAc6S,-0.49
same,glycan array binding signal (z-score),[25],-0.47
same,glycan array binding signal (z-score),[26],2.81
same,glycan array binding signal (z-score),[27],0.832
same,glycan array binding signal (z-score),[28],-0.345
same,glycan array binding signal (z-score),[29],-0.466
same,glycan array binding signal (z-score),[30],-0.397
same,glycan array binding signal (z-score),[31],-0.521
same,glycan array binding signal (z-score),[32],-0.109
same,glycan array binding signal (z-score),[33],-0.327
same,glycan array binding signal (z-score),[34],-0.566
same,glycan array binding signal (z-score),Gal(b1-4)Gal,3.25
same,glycan array binding signal (z-score),[35],-0.594
